Test results from article PMC4336329 (PLoS ONE, 2015).
The campaign covered roughly 310,000 compounds. About 2,200 (0.71%) showed an effect of 50% or more. The effect is printed as a negative number. The list shows a part of the results.

What follows are compounds tested against human ether-à-go-go-related gene (hERG) potassium channel (human, UniProt Q12809) (assay: primary screen, population patch clamp on CHO cells stably expressing hERG).
human ether-à-go-go-related gene (hERG) potassium channel, sequence (Q12809 whole entry, looked up): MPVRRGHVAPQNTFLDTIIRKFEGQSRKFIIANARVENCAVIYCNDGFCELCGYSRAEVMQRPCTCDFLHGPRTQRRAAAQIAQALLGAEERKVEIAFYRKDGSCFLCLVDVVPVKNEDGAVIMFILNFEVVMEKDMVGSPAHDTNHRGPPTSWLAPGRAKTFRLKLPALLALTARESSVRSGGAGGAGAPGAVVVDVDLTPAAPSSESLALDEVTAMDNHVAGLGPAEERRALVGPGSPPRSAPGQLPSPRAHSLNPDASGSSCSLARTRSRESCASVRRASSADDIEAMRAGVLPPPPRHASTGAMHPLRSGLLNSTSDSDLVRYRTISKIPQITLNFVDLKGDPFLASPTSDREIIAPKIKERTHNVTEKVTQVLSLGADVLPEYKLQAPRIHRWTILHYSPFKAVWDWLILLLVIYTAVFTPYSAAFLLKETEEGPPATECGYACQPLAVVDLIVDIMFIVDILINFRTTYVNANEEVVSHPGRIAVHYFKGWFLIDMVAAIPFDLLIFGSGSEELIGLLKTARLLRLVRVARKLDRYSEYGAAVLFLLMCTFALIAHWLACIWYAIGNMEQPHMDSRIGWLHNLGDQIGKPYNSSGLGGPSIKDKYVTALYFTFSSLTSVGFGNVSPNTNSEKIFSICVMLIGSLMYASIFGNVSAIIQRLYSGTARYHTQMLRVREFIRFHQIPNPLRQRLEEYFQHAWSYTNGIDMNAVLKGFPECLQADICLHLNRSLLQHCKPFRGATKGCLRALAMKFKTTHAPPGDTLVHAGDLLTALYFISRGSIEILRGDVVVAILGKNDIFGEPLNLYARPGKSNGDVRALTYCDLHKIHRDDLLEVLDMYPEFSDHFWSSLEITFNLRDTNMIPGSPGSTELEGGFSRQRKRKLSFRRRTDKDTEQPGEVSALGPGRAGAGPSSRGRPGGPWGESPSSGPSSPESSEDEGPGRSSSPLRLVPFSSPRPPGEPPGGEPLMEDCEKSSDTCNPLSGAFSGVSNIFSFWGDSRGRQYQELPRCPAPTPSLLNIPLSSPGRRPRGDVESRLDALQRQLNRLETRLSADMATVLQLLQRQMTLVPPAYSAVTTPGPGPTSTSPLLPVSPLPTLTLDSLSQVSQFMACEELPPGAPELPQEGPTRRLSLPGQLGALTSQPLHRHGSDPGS

Structure (SMILES)	hERG current change (%, negative = inhibition) at 1uM [%]
CN(C)c1cccc(C(=O)NCC2CCCO2)c1 (stereo not shown)	10.6
COc1ccc(N2CCN(C(=O)c3oc4ccccc4c3NC(=O)Cc3cccc(OC)c3)CC2)cc1	3.16
Cc1cc(C)c(C#N)c(SCC(=O)Nc2ccccc2C)n1	14
O=C(CSc1ccc(-c2ccccc2)nn1)NCC1CCCO1 (stereo not shown)	9.52
COC(=O)c1ccc(N2CCN(C)CC2)c(NC(=O)COc2cccc(C)c2)c1	-3.12
Cc1cc(S(N)(=O)=O)ccc1N=Cc1c(O)n(-c2ccccc2)c(=O)[nH]c1=O	1.58
Cc1ccc(O)c(C(=O)c2cc(C#N)c(=O)n(CC3CCCO3)c2)c1 (stereo not shown)	2.92
Cc1ccc(S(=O)(=O)N2CCN(c3ncccn3)CC2)c(C)c1	19.1
CCCCN1c2ccccc2N(CCCO)c2cc(C)nnc21	10.7
Cc1ccc(C(=O)Oc2ccc3ccc(=O)oc3c2)cc1	5.97
O=CN1CC(=O)N(c2ccccc2)c2c([nH]c3ccccc23)C1	-4.05
Cc1nc(-c2cccnc2)sc1C(=O)Nc1cccc(C(F)(F)F)c1	-1.29
COc1ccccc1N(Cc1ccccc1)S(=O)(=O)c1cccc(C(=O)Nc2ccc(C(C)=O)cc2)c1	2.16
COC(=O)c1ccc(Oc2c(Cl)cccc2[N+](=O)[O-])cc1	11.9
Cc1ccc(NC(=O)c2nnn(CC(=O)Nc3ccc4c(c3)OCO4)c2N)cc1C	7.24
COc1ccc(NC(=O)Cc2nnc(SCC(=O)Nc3ccc(F)cc3)n2C)cc1	1.95
Cc1csc(=O)n1CC(=O)OCC(=O)Nc1ccc(F)c(F)c1	13.7
COc1ccc(CC(=O)Nc2ccccc2NC(=O)Cc2ccc(OC)cc2)cc1	15
Cc1c(O)c(=O)n(-c2ccccc2)n1C	11.1
CNC(=O)c1ccccc1NC(=O)c1cccc(S(=O)(=O)N2CCCCC2)c1	1.6
O=C1CSC2(N1)C1CC3CC(C1)CC2C3 (stereo not shown)	9.64
c1ccc(-c2nn3nnnc3c3ccccc23)cc1	-82.9
Cc1cc(N2CCOCC2)nc2ccc(NC(=O)CCC(=O)N3CCCC(C)C3)cc12 (stereo not shown)	2.05
COc1ccc(N2CCN(S(=O)(=O)c3cccs3)CC2)cc1	7.44
Cc1cccc(C(=O)N[C@H](C(=O)OCC(=O)NC2CCS(=O)(=O)C2)C(C)C)c1 (stereo partly shown)	13.4
C#Cc1ccc([C@@H]2C=C(C(=O)NC3CC3)O[C@H](OCC)[C@H]2CCCO)cc1	1.55
COc1ccc(NC(=O)c2ccc(C)cc2)c[n+]1[O-]	11.8
CC1CCCN(S(=O)(=O)CCNC(=O)c2ccccc2)C1 (stereo not shown)	8.86

Structure (SMILES)	hERG current change (%, negative = inhibition) at 1uM [%]
Cc1ccc(Cl)cc1NC(=O)COC(=O)CC(C)(C)C	-1.75
O=C(Oc1ccccc1)c1cc2ccccc2oc1=O	9.41
CC(C)C(O)(CC#CCN1CCCC1)c1ccccc1.Cl (stereo not shown)	17
COc1cccc(/C=C/C(=O)OCC(=O)Nc2ccc(Cl)c(S(=O)(=O)N(C)C)c2)c1OC	6.9
CCN(CC)C(=O)COc1ccc(Br)cc1Cl	15.7
Cc1ccc(C2(CC(=O)Nc3nccs3)CCOC(C(C)C)C2)cc1 (stereo not shown)	5.94
C/C(CC1CC(COCCC(C)C)OC1=O)=N\NC(N)=S (stereo not shown)	6.43
O=C(NCc1ccc(OC(F)(F)F)cc1)C12CN(Cc3ccccc3)CC1C(c1cccc([N+](=O)[O-])c1)=NO2 (stereo not shown)	21.7
Cc1cc(-c2nn3c(C)nnc3s2)ccc1NC(=O)C(C)(C)C	13.6
O=C(NCCCN1CCCC1)c1ccc2c(c1)N(Cc1cccc(Cl)c1)C(=O)c1ccccc1S2=O (stereo not shown)	3.71
COc1ccc(N2C(=S)NC3N2C(=S)NC3(C)c2ccccc2)cc1 (stereo not shown)	12
COc1ccc2oc(=Nc3cccc(F)c3)c(C(N)=O)cc2c1	16
Cc1cccc(N(Cc2ccccc2)C(=O)c2ccc(S(C)(=O)=O)cc2)c1	13.6
COc1ccc(C(CCNCc2ccccc2F)c2ccc(F)cc2)cc1 (stereo not shown)	-0.989
COc1ccc(-c2nn(-c3ccccc3)cc2/C=C2/SC(=S)N(Cc3ccco3)C2=O)c(C)c1	-1.59
Cc1nc2c(cc1C(=O)N/N=C/c1ccc(O)c(O)c1)c(=O)n(C)c(=O)n2C	8.58
C/C(=N/NC(=O)c1ccoc1C)c1ccc(N2CCOCC2)cc1	4.3
Cc1ccccc1COc1ccc(-c2nnn(CC(=O)O)n2)cc1	18.2
C/C=C/C(=O)Nc1cccc(C2=NOC3(C2)C[C@@H](C(N)=O)N(C(=O)c2cc([N+](=O)[O-])cc([N+](=O)[O-])c2)C3)c1 (stereo partly shown)	19.4
COc1ccc2c(c1)c(C(C)=O)c(C)n2-c1ccccc1OC	6.98
CC(C)CN(C(=O)COC(=O)/C=C/c1ccccc1)C1CCS(=O)(=O)C1 (stereo not shown)	10
CC(Oc1cccnc1[N+](=O)[O-])C(=O)Nc1ccc(Cl)cn1 (stereo not shown)	-1.21
Cc1ccc2[nH]c(=O)c(C(c3nnnn3C(C)(C)C)N(Cc3ccco3)CC3CCCO3)cc2c1 (stereo not shown)	12.2
CCOC(=O)c1c(C)c(C(=O)NCc2cccnc2)c(C)n1CC	10
Fc1ccccc1OCCSc1nnnn1-c1ccccc1	3.58
COc1ccc(-c2nn(CCC#N)cc2C(=O)Nc2ccc(C(C)=O)cc2)cc1	13.1
CCOC(=O)C1=C(C)Nc2nc(C)nn2C1c1cc(OC)ccc1OC (stereo not shown)	10.9
